Data from PubChem BioAssay AID540267 (National Center for Advancing Translational Sciences (NCATS), 2011).
Out of some 340,000 compounds screened, about 530 (0.16%) were called active. The inconclusive results got no clear call from the source; some entries with a clear call stand among them for comparison. Cut-off read from the data, not from the text of the source: active = activity change below about -80%; inconclusive = between about -30% and that limit; inactive = weaker than that.

Test: Small Molecules that selectively kill Giardia lamblia: qHTS;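 note: parasites exposed to compound for two days anaerobically before the ATP read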
Details: Giardia lamblia trophozoite viability; at 7.66 µM; active compounds read low
How it was run: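 Luminescence from cellular ATP indicates surviving trophozoites (100 cells/well) following 48 hrs anaerobic compound treatment at 37 deg C; signal develops 15-30 min at room temperature.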
% is set by controls: 0 for no effect and ±100 for the full control effect.

SMILES	activity change
NC(=O)CC(c1ccccc1)c1ccc2c(c1)OCO2 (stereo unspecified)	inactive: 4.3%
Cc1cc(Br)ccc1NC(=O)CN(C)C(=O)C1CCN(c2ncnc3sc(C)c(C)c23)CC1	inactive: 25.4%
Clc1ccc(/C=C/c2nc(Cl)c(-c3ccc(Cl)cc3)c(Cl)n2)cc1	inconclusive: -32.6% [inhibitor]
Cc1onc(-c2c(Cl)cccc2Cl)c1C(=O)NCCc1ccncc1	inactive: -3.11%
COc1ccc(NC(=O)CN(C)C(=O)C2CCCO2)cc1 (stereo unspecified)	inconclusive: -32.8% [inhibitor]
CCN(CC)S(=O)(=O)c1cccc(NC(=O)CSc2nnc(N)s2)c1	inconclusive: -33.9% [inhibitor]
CC1CCCC(NC(=O)COC(=O)c2ccc([N+](=O)[O-])s2)C1C (stereo unspecified)	inconclusive: -31.9% [inhibitor]
CNCCc1ccccn1	inconclusive: -31.6% [inhibitor]
O=C(Nc1ccc2nsnc2c1)c1ccc2c(c1)OCO2	inconclusive: -38% [inhibitor]
COC(=O)[C@@H](Cc1ccccc1)NC(=O)NCCc1ccc(OC)c(OC)c1	inactive: -6.14%
CC(=O)c1c(C)n([O-])c2ccccc2[n+]1=O	active: -80.7%
COc1ccc(S(=O)(=O)N2CCC(NC(=O)C(Cc3cccc(OC)c3OC)NC(C)=O)CC2)cc1 (stereo unspecified)	inconclusive: -40.5% [inhibitor]
O=C(COc1ccccc1)Nc1ccc(F)cc1	inconclusive: -30.5% [inhibitor]
O=C(CCN1CCc2ccccc2C1)Nc1ccccc1F	inactive: 13.1%
O=c1ccc2cc(S(=O)(=O)N3CCN(c4ccccc4)CC3)ccc2o1	inconclusive: -32.1% [inhibitor]
COc1ccc(N(C(=O)CNC(=O)c2ccco2)C(C(=O)NC2CCCC2)c2cccnc2)cc1 (stereo unspecified)	inconclusive: -30.7% [inhibitor]
Cc1cc(N2CCN(C)CC2)nc2ccc(NC(=S)N3CCN(c4cccc(Cl)c4)CC3)cc12	active: -81.4%
CN(C)c1ccc(/C=N/n2c(-c3cccnc3)n[nH]c2=S)cc1	inactive: 3.84%
Nc1ccc(-c2nc3cc(N)ccc3o2)cc1	inactive: -24.9%
CCOCCOc1nc2c(c(=O)n(C)c(=O)n2C)n1Cc1ccc(C)cc1	inconclusive: -47.4% [inhibitor]
O=C1/C(=C\c2ccc([N+](=O)[O-])cc2)CCc2ccccc21	active: -90.8%
CCOc1ccc(-c2cc(C(=O)O)c3ccccc3n2)cc1	active: -82.6%
Cc1ccc(NC(C)C(=O)N/N=C/c2ccc([N+](=O)[O-])s2)cc1 (stereo unspecified)	active: -83.7%
COc1cc(O)c(C(CC(=O)N2CCCC(C)C2)c2ccc3c(c2)OCO3)c(OC)c1 (stereo unspecified)	inconclusive: -33.3% [inhibitor]
Cc1ccccc1NCC(=O)N/N=C/c1ccc([N+](=O)[O-])cc1	inactive: -11.9%
CN(CC(=O)Nc1ccc(F)cc1)C(=O)CSc1nccn1C	inconclusive: -42.3% [inhibitor]

SMILES	activity change
O=C(C1=C(c2ccccc2)C(=O)c2ccccc2C1=O)c1ccccc1	inconclusive: -45.9% [inhibitor]
O=C(Nc1ccc(Cl)cc1)Nc1ccc(S(=O)(=O)Nc2ncccn2)cc1	inconclusive: -37.9% [inhibitor]
Cc1occc1C(=O)N/N=C/c1cccs1	inactive: -26.8%
O=C(N/N=C/c1ccccn1)c1ccc(NC(=O)c2cccc([N+](=O)[O-])c2)cc1	inactive: 27.7%
COc1ccc(C(=O)Nc2cccc(OC)c2)cc1	inconclusive: -38.9% [inhibitor]
O=C(NCCN1CCOCC1)C(=O)NCC1OCCN1C(=O)c1ccc(Cl)cc1 (stereo unspecified)	inconclusive: -33% [inhibitor]
COc1ccc(S(=O)(=O)NCC2CCCN(CC(C)(C)C)C2)cc1 (stereo unspecified)	inconclusive: -31% [inhibitor]
CCOc1ccc(C(=O)Nc2nnc(SCC(=O)NCC3CCCO3)s2)cc1 (stereo unspecified)	active: -94.3%
CCOC(=O)N1CCN(S(=O)(=O)N2CCCC(C(=O)NCCCN3CCCCC3CC)C2)CC1 (stereo unspecified)	inactive: 9.14%
CC(C)(C)OC(=O)N1CCC[C@H]1c1nnc(SCc2ccccc2Cl)o1	inconclusive: -42.2% [inhibitor]
O=C(COc1ccccc1[N+](=O)[O-])Nc1ccc(Br)cc1	inconclusive: -33.7% [inhibitor]
CCCCSc1ncc(C(=O)OCC)c(N)n1	inactive: -4.19%
Cc1ccc(C(=O)N2[C@@H]3CN(C)C(=O)[C@@]2(Cc2ccccc2)[C@H]2C(=O)N(Cc4ccccc4)C(=O)[C@@H]32)cc1	inconclusive: -33.2% [inhibitor]
NC(=O)c1c(NC(=O)CCCn2cnc([N+](=O)[O-])n2)sc2c1CCCC2	inconclusive: -48.5% [inhibitor]
O=C(Nc1nncs1)c1ccc2c(c1)OCO2	inconclusive: -30.6% [inhibitor]
O=C(NCC1CCCO1)c1ccc([N+](=O)[O-])s1 (stereo unspecified)	inconclusive: -30.8% [inhibitor]
COc1ccc(Cl)cc1C(=O)Nc1nc2ccccc2[nH]1	inconclusive: -48.2% [inhibitor]
COc1ccc(N2C(=NC(=O)C3CCCO3)SC3CS(=O)(=O)CC32)cc1 (stereo unspecified)	inconclusive: -31.8% [inhibitor]
Cc1cc(C(=O)CSc2nc3ccccc3c(=O)n2C)c(C)n1Cc1ccc2c(c1)OCO2	inactive: 12.1%
Cc1ccc(-n2nnc(-c3nccs3)n2)cc1	inconclusive: -69.6% [inhibitor]
Cc1nc2ccccc2n1/N=C/c1ccc([N+](=O)[O-])s1	inconclusive: -71.2% [inhibitor]
CCCCNC(=S)N=Nc1c(O)n(Cc2ccccc2)c2ccccc12	inactive: -2.53%
CCOC(=O)C1=C(CP(=O)(c2ccccc2)c2ccccc2)NC(=O)NC1c1ccc(OC)cc1 (stereo unspecified)	inactive: -22.3%
COc1ccc(OCC(=O)Nc2ccc(C)c(S(=O)(=O)N(C)C)c2)cc1	inactive: 1.07%
Cc1ccc(NC(=S)C2=C(O)c3ccccc3N(C)S2(=O)=O)cc1	inconclusive: -36.7% [inhibitor]
